Results published in publication PMC4336329 (PLoS ONE, 2015).
Screen size: about 310,000 compounds; about 2,200 (0.71%) showed an effect of 50% or more. The effect is printed as a negative number. This is one part of the list.

Biological target: human ether-à-go-go-related gene (hERG) potassium channel (human, UniProt Q12809)
Assay: primary screen, population patch clamp on CHO cells stably expressing hERG

Sequence of human ether-à-go-go-related gene (hERG) potassium channel (Q12809 whole entry, looked up): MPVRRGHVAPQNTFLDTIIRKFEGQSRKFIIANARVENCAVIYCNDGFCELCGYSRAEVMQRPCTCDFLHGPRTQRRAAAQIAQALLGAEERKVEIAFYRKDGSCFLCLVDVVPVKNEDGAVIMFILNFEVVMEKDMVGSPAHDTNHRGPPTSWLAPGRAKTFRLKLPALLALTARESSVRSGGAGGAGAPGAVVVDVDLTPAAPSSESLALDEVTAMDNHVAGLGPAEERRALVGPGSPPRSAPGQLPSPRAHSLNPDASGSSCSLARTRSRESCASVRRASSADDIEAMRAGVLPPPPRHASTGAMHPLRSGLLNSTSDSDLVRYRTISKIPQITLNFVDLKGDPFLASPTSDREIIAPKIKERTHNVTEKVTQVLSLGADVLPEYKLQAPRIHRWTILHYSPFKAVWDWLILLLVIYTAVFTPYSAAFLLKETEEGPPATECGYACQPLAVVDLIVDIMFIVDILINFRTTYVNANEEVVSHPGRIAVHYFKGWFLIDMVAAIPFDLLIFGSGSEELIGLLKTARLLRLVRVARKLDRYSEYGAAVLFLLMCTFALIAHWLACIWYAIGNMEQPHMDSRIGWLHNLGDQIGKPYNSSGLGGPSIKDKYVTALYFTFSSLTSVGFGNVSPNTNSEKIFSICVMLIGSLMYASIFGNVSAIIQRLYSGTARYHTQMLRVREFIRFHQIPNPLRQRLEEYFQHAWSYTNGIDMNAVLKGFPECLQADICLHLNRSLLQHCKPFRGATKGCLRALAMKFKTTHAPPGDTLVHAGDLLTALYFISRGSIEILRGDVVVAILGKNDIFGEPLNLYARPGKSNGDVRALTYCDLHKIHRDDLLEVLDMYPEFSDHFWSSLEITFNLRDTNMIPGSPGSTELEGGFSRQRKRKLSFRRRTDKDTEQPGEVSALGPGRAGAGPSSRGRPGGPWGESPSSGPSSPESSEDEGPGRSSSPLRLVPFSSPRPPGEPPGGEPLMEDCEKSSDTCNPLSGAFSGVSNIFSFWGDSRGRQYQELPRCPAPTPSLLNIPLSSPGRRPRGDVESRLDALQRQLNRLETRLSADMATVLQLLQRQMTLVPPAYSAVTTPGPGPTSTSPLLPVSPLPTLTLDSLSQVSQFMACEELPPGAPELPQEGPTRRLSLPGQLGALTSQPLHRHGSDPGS

SMILES | hERG current change (%, negative = inhibition) at 1uM
COc1cccc(C2SCC(=O)N2c2ccc(Br)cc2)c1OC (centres unmarked) | 2.41%
O=C(NCCc1ccccc1)C(=O)NCC1CCCN1S(=O)(=O)c1cccs1 (centres unmarked) | 5.75%
NC1=CC(=O)c2cccc3cccc1c23 | 10.6%
CC1CCCN(CCC(=O)Nc2ccc(F)c(F)c2)C1 (centres unmarked) | -11.5%
O=C(CCS(=O)(=O)c1ccc(Br)s1)NC1CCCC1 | 6.5%
Cc1ccc(-n2ncc3c2CC(C)(C)CC3NC(=O)c2ccncc2)cc1 (centres unmarked) | -48.8%
CC(=NCC1CCCO1)c1c(O)n(-c2ccc(C)cc2)c(=O)[nH]c1=O (centres unmarked) | -2.32%
COc1ccc(CN2CCN(Cc3ccon3)CC2CCO)c(C)c1C (centres unmarked) | 2.93%
COc1ccc(C(=O)c2c(C)c(CCC#N)n3ccccc23)c(OC)c1 | 3.79%
CCc1nc(Nc2ccccc2)c2oc3ccccc3c2n1.Cl | -5.26%
Cc1cccc(OCCCCn2c(CO)nc3ccccc32)c1 | 7.97%
Cc1cc(C)n(Cc2ccc(C(=O)NCc3ccco3)o2)n1 | 6.25%
CC(=O)c1cccc(NC(=O)NCCc2c[nH]c3ccccc23)c1 | 5.25%
CN(CC(=O)Nc1cccc(F)c1)C(=O)c1cc(S(=O)(=O)N(C)C)ccc1N1CCCC1 | -0.211%
Cc1ccc(S(=O)(=O)N2CCN(C(=O)Cc3ccc(S(=O)(=O)N4CCOCC4)s3)CC2)cc1 | 17.1%
COc1ccccc1C(=O)Nc1c2c(nn1-c1ccc(Cl)cc1)CS(=O)(=O)C2 | 9.57%
CCOC(=O)Cc1csc(/N=C/c2c(O)n(-c3ccc(C)c(C)c3)c(=O)c3ccccc23)n1 | -0.384%
O=C(COC(=O)c1cccc2ccccc12)Nc1ncc(C(F)(F)F)cc1Cl | 5.58%
CCOC(=O)N1CCN(C(=O)C(NC(=O)c2ccco2)C(C)C)CC1 (centres unmarked) | 13.1%
Cc1ccc(S(=O)(=O)N2CCCC(C(=O)NCc3cccnc3)C2)cc1Cl (centres unmarked) | 9.6%
CCN1CCN(CC(=O)Nc2ccc3c(c2)OCO3)C(=O)C1=O | 8.03%
CCOC(=O)C1=NN(C(=O)c2cccc(Br)c2)C(O)(C(C)(C)C)C1 (centres unmarked) | 2.59%
COc1ccc2cc(S(=O)(=O)NCCCN3CCOCC3)ccc2c1 | 4.04%

SMILES | hERG current change (%, negative = inhibition) at 1uM
Cc1cccc(NC(=O)NCc2ccc3[nH]c(C)cc3c2)c1 | 16.4%
CCOC(=O)CSc1nnc(-c2ccccc2)o1 | 10.3%
Cc1nn(C)cc1/C=N/NC(=O)Cn1nnc(N)n1 | 9.58%
CCCC(=Nc1ccc(N)cc1)C1=C(O)C(C(=O)OC)C(C)(C)CC1=O (centres unmarked) | 4.92%
CNC(=S)N(CCc1c(C)[nH]c2ccc(F)cc12)Cc1ccco1 | 15.4%
CCOc1ccc(NC(=O)C(=O)NCC2CCCN2CC)cc1 (centres unmarked) | 4.03%
COCCCNC(=O)c1ccc(-c2csc(C)n2)cc1 | 0.422%
Cc1ccsc1/C=C1\SC(N2CCOCC2)=NC1=O | 0.207%
CCOC(=O)Cc1csc(NS(=O)(=O)c2ccc3c4c(cccc24)C(=O)N3CC)n1 | 8.54%
O=C(CCc1nnc(C2CCCCC2)o1)NCc1ccc(F)c(F)c1 | 9.09%
CCCCCCn1nc(C(=O)N(CCOC)c2c(N)n(CCCC)c(=O)[nH]c2=O)c2ccccc2c1=O | 19.4%
COC(=O)c1sccc1NC(=S)Nc1ccc(C)cc1 | 11%
Cc1ccccc1Cc1ccc(Cl)nn1 | 6.13%
Cc1cc(-c2ccccc2)nc2[nH]n(-c3ccccc3)c(=O)c12 | -0.4%
CC(=O)Nc1cccc(NC(=O)c2cccc3cccnc23)c1 | 15.9%
CCCCN(C(=O)COc1ccc(C)cc1OC)c1c(N)n(CCC)c(=O)[nH]c1=O | 2.14%
O=C(NCCN1C(=O)S/C(=C\c2cccnc2)C1=O)c1ccc([N+](=O)[O-])s1 | 11.3%
COc1cccc(CCNC(=O)C2CCCN(c3ncnc4c3nc3n4CCCCC3)C2)c1OC (centres unmarked) | -31.5%
NC(=O)COC(=O)c1cc(Cl)cc(Cl)c1N | 11.6%
COc1ccc(-c2cn3cccnc3n2)cc1 | 14.8%
O=C(Nc1ccccn1)c1cc(-c2ccc(Cl)s2)nc2ccccc12 | 10.8%
Cc1onc(C(=O)NN)c1C(=O)Nc1ncc(C(F)(F)F)cc1Cl | 15.1%
CCCCc1nc2cc(C(=O)N3CCCCC3CCNC(C)=O)ccc2o1 (centres unmarked) | 23.1%

SMILES | hERG current change (%, negative = inhibition) at 1uM
Cn1c(CN2CCCCC2)nc2cc(NS(=O)(=O)c3ccc(F)cc3)ccc21 | -21.8%
CC(=O)c1ccc(N2CCN(c3ccc(C(F)(F)F)cn3)CC2)cc1 | 4.25%
CCNC(=S)NNC(=O)CCc1nc2cc(Cl)ccc2n(Cc2ccccc2)c1=O | 6.29%
CC12COC3(C(=O)Nc4ccc(Cl)cc4)CC1CCC32C (centres unmarked) | 9.96%
CC(C)(C)c1nc(SCC(=O)c2ccccc2)c2ccccc2n1 | 13.5%
CC1CCCCN1CCCNC(=O)c1ccc(NC(=O)C2=CSCCO2)cc1 (centres unmarked) | 16.1%
Cc1cc(=O)n(C)c2ccc(S(=O)(=O)N3CCOCC3)cc12 | 20.4%
O=C(O)CCCNC(=O)C(c1ccccc1)c1ccccc1 | 6%
CC[n+]1ccc2cc(OC)c(OC)cc2c1Cc1ccc(OC)c(OC)c1.[I-] | 24.5%
O=C(COC(=O)c1ccc(O)cc1)NC1CCCC1 | 15.1%
COc1ccc(-n2c(CCC(=O)O)ccc2-c2ccccc2)cc1 | 3.65%
Cc1ccc(C(=O)C(C)OC(=O)Cc2c[nH]c3ccccc23)cc1 (centres unmarked) | 7.75%
CCN(CC(=O)Nc1c(F)cccc1F)C(=O)c1ccc(S(=O)(=O)N2CCCC2)cc1 | 4.21%
Cc1ccc(NC(=O)c2ccc(Cn3cc([N+](=O)[O-])cn3)cc2)c(C)c1 | 7.82%
COc1cc(S(=O)(=O)N2CCOCC2)ccc1NC(=O)COC(=O)COc1ccccc1 | 5.16%
Cc1ccccc1Cn1ccc(NC(=O)c2cnn3cccnc23)n1 | 4.41%
COc1ccc(/C=N/NC(=O)CN(C)S(=O)(=O)c2ccc(NC(C)=O)cc2)cc1 | 2.96%
O=C(Cn1ncc(Cl)c(Cl)c1=O)NC1CCS(=O)(=O)C1 (centres unmarked) | 0.998%
COc1ccc(CCNC(=O)CC(=O)N/N=C/c2ccc(Br)cc2)cc1OC | 7.64%
CN(C)S(=O)(=O)c1cccc(C(=O)Nc2cc(Cl)ccc2O)c1 | 0.679%
CCOc1ccc(-c2nnn(CC(=O)N3CCCC(C)C3)n2)cc1 (centres unmarked) | 2.01%
O=C(CSc1ccc2nnc(-c3cccnc3)n2n1)c1ccccc1 | -13.6%
O=C(COc1ccc2ccccc2c1)N1CCNCC1.O=C(O)C(F)(F)F | 5.67%

SMILES | hERG current change (%, negative = inhibition) at 1uM
Br.CCCCn1c(=N)n(CCOc2ccc(C)cc2)c2ccccc21 | -59.6%
C=C(C)CN=C1SC(C(=O)Nc2sc3c(c2C(=O)OC)CCC3)C(N)=C1C(N)=O (centres unmarked) | 14.1%
Cl.O=C1CCC(c2ccccc2)(C2CCN(Cc3ccccc3)CC2)C(=O)N1 (centres unmarked) | 7.17%
CN(C/C(O)=C(\C#N)c1ccccc1)C1CCCCC1 | 10.1%
CNC(=O)c1ccccc1F | 11.5%
CCn1c2ccccc2c2cc(NC(=O)COC(=O)c3cc(OC)c(OC)cc3OC)ccc21 | 9.06%
O=C(O)C1CCCN1c1ncccn1 (centres unmarked) | 1.01%
Cc1ccc(NC(=O)/C(C#N)=C/c2ccc(Sc3nc(C)cc(C)n3)o2)cc1 | 11.7%
CCC(=O)Nc1ccccc1C(=O)N1CCN(Cc2ccccc2)CC1 | 8.56%
CCCCC(=O)NC(c1ccccc1Cl)c1c(O)ccc2ccccc12 (centres unmarked) | -0.695%
COc1ccc(NC(=O)/C(N=Nc2cc(S(=O)(=O)Nc3ccc(OC)cc3)ccc2OC)=C(\C)O)cc1 | 15.4%
COc1ccc(NC(=O)c2cc(-c3ccccc3Cl)no2)cc1 | 6.92%
C=C(C)CC1N(c2cccc(OC)c2)C(=O)C2C(C(=O)O)C3C=CC21O3 (centres unmarked) | 8.54%
Cc1ccc(C(=O)Nc2ccc(S(=O)(=O)N3CCCC3)cc2)cc1 | 12.5%
COC(=O)c1ccc(NS(=O)(=O)c2cc3c4c(c2)CCC(=O)N4CCC3)cc1 | 4.92%
CC(C)(C)c1nn2cnnc2n(/N=C/c2cccc3ccccc23)c1=O | 10%
CC(C)CN(C(=O)COC(=O)c1ccc(Cl)nc1)c1c(N)n(Cc2ccccc2)c(=O)[nH]c1=O | 13.2%
COc1ccc(C(=O)N2CCC(C(=O)Nc3ccccc3OC)CC2)cc1 | 13.4%
Oc1[nH]c2ccccc2c1N=Nc1c(F)c(F)c(C(F)(F)F)c(F)c1F | 5.76%
Cc1ccc(-c2nnc(N3CCCCC3)c3ccccc23)cc1S(=O)(=O)N1CCN(C)CC1 | -16.9%
